The campaign covered roughly 270,000 compounds. About 5,800 (2.1%) were called active. Inconclusive results, whose numbers are uncertain, are shown with a selection of clear calls. Calls come from the whole dose curve; as a rule, active = well fitted inhibition curve with a large enough effect; inconclusive = small, poorly fitted or top-dose-only effect; inactive = flat fitted curve, though single readings scatter. A potency beside an inconclusive call is a rough fit, not a confirmed value.
Target: Microtubule-associated protein tau (Homo sapiens) (UniProt P10636)
Assay: qHTS for Inhibitors of Tau Fibril Formation, Thioflavin T Binding; note: nearly all actives have a fitted effect of over 55% in size
Conditions: recombinant tau K18 P301L (four-repeat tau fragment), heparin-induced fibrillization, ThT fluorescence; series mostly up to 57.4 µM
How it was run: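 Aggregation was driven by heparin (20 uM final) acting on recombinant tau […] bearing P301L in 100 mM sodium acetate pH 7; fibrils were detected with Thioflavin T.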
Potency is the fitted concentration of half-maximal effect; tags give direction and shape of the fitted curve.

Chain of UniProt P10636 (P10636 whole entry, looked up): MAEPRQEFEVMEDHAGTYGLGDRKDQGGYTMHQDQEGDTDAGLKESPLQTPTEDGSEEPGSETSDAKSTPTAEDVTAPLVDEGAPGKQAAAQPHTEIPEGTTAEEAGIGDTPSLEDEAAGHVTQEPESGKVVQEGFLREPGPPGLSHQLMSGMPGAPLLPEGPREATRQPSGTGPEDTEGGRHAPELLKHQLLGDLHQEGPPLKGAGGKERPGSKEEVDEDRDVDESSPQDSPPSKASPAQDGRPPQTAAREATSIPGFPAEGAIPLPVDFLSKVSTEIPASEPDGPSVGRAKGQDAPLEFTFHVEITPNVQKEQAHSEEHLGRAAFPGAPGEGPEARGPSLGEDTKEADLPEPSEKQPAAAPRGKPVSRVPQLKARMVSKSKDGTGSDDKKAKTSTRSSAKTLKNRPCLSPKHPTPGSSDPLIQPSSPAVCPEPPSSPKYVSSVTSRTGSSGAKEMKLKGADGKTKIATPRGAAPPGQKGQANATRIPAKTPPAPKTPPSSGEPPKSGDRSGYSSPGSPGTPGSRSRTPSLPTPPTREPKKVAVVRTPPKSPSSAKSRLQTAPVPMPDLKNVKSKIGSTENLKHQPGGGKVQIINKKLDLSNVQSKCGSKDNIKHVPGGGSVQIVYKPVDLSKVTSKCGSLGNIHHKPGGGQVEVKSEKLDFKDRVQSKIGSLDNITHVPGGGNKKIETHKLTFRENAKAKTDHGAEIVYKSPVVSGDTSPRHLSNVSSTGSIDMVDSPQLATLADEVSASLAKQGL

Row | SMILES | Potency
1 | C/C(=N/Nc1nc(-c2ccccc2)cc(-c2ccc(F)cc2)n1)c1cccc(N)c1 | inconclusive: 4.47 µM [inhibitor, full curve]
2 | COc1ccc(CNc2ccc(Br)cc2)cc1 | inconclusive: 25.1 µM [inhibitor, partial curve]
3 | Cc1c(N=Nc2ccc(O)cc2)c(=O)n(-c2ccccc2)n1C | inactive
4 | COc1ccc(N=N/C(=C\O)C(=O)c2cccs2)cc1 | active: 12.6 µM
5 | Oc1c(C(c2ccco2)N2CCN(C(c3ccccc3)c3ccccc3)CC2)sc2ncnn12 (centres undefined) | inconclusive: 22.4 µM [inhibitor, partial curve, poor fit]
6 | Cc1ccsc1-c1n[nH]c(=S)n1C1CCCCC1 | inactive
7 | CC1=NN(c2ccc([N+](=O)[O-])cc2)C(=O)C1[N+](=O)[O-] (centres undefined) | active: 12.6 µM
8 | O=C(CSc1nnc(-c2ccco2)o1)c1ccc[nH]1 | inconclusive: 25.1 µM [inhibitor, partial curve, poor fit]
9 | Cc1cc(C)cc(NC(=O)CSc2nc3nccnc3c(=O)n2CCc2c[nH]c3ccccc23)c1 | inconclusive: 0.355 µM [inhibitor, full curve, poor fit]
10 | CC(C)CCn1c(/C=C/c2ccccc2)nc2ccccc21 | inconclusive: 15.8 µM [inhibitor, partial curve]
11 | Cc1ccc(C(c2nnnn2Cc2ccccc2)N2CCN(Cc3ccccc3)CC2)cc1 (centres undefined) | inactive
12 | Cc1ccc(CN2CCc3c(OCC(=O)Nc4cccc(C)c4C)cccc3C2=O)cc1 | inactive
13 | O=C1C(Cl)=C(NCC2CCCO2)C(=O)N1c1cccc(Cl)c1Cl (centres undefined) | inconclusive: 17.8 µM [inhibitor, partial curve]
14 | O=C(O)c1ccccc1CSC1=NCCS1 | inconclusive: 28.2 µM [inhibitor, single point]
15 | NCCCC[C@H]1NC(=O)[C@H](CCC(=O)O)NC(=O)c2cc([N+](=O)[O-])cc(I)c2OCC[C@@H](C(N)=O)NC1=O | inactive
16 | O=C(Oc1coc(CSc2nnc(NC(=O)c3cccs3)s2)cc1=O)c1ccccc1 | inconclusive: 3.55 µM [inhibitor, full curve]
17 | CCN(CC)c1ccc(/C=N/Nc2ccccc2)c(O)c1 | active: 25.1 µM
18 | O=C(Cc1ccccc1)NC(=S)Nc1ccc(N2CCCCC2)cc1 | inconclusive: 11.2 µM [inhibitor, partial curve]
19 | COc1ccc(C(=O)c2sc(Nc3ccccc3)nc2N)cc1 | inconclusive: 7.08 µM [inhibitor, full curve]
20 | O=C(/C=C/c1ccco1)NCc1ccc2c(c1)OCO2 | inconclusive: 28.2 µM [inhibitor, single point]
21 | O=C(CSCc1cccc(Br)c1)NC1CC1 | inactive
22 | COc1ccc(-c2nn3c(-c4ccccc4)nnc3s2)cc1 | inconclusive: 5.01 µM [inhibitor, partial curve]
23 | CC(C)c1ccc(/C=C/C(=O)N2CCc3ccccc3C2)cc1 | inconclusive: 1.12 µM [inhibitor, partial curve]
24 | COc1cccc(N2CC(NC(=O)c3cc(Cl)ccc3OC)CC2=O)c1 (centres undefined) | inactive
25 | C=CCOc1c(Br)cc(CNc2ccc(NC(=O)C(C)C)c(OC)c2)cc1OC | inconclusive: 22.4 µM [inhibitor, single point]

Row | SMILES | Potency
26 | CC(=O)Oc1ccc2c(C)cc(=O)oc2c1C(=O)c1ccccc1 | inconclusive: 39.8 µM [inhibitor, single point]
27 | Oc1c(Br)cc(Br)cc1C=Nc1ccc2c(c1)OCO2 | active: 20 µM
28 | C/C(=N\Nc1ccc(Cl)c(C(=O)O)c1)c1cccs1 | inconclusive: 5.01 µM [inhibitor, partial curve]
29 | CN(C(=S)NC(=O)/C=C/c1ccc(F)cc1)C1CCCCC1 | inconclusive: 35.5 µM [inhibitor, single point]
30 | Cc1ccc(C)c(N2CCN(CCCNC(=O)c3ccc4nc(CCc5ccccc5)oc4c3)CC2)c1 | inconclusive: 14.1 µM [inhibitor, partial curve]
31 | Cc1cc(C)c2c(NC(=O)c3ccccc3)c(C(=O)Nc3ccc(F)cc3)sc2n1 | inactive
32 | Cc1ccc(C(=O)CSc2nc(C)cc(C)c2C(N)=O)cc1 | inactive
33 | Cc1cc(SCC(=O)NC(=O)NCc2ccco2)nc2c(C)cccc12 | inconclusive: 22.4 µM [inhibitor, partial curve]
34 | CCCNC(=O)C1CCC(Cn2c(=O)c3sccc3n(CC(=O)NCc3cccc(OC)c3OC)c2=O)CC1 (centres undefined) | inactive
35 | CCn1c(-c2cccs2)nc2ccccc21 | inconclusive: 28.2 µM [inhibitor, partial curve]
36 | O=C(C1CCN(S(=O)(=O)c2ccc(Br)s2)CC1)N1CCN(c2cccc(C(F)(F)F)c2)CC1 | inactive
37 | O=C(O)CCc1ccc(-c2cccs2)n1CCC(=O)O | inconclusive: 25.1 µM [inhibitor, single point]
38 | CCCSc1ncc(Cl)c(C(=O)Nc2sc3c(c2C(=O)OC)CCCC3)n1 | inactive
39 | COC1=C(Nc2ccc(OC)cc2)C(=O)c2ccccc2C1=O | active: 11.2 µM
40 | CN(C(=O)c1ccccc1Cl)C1CCCCC1 | inactive
41 | O=C(/C=C/c1ccccc1)c1ccccc1O | inconclusive: 17.8 µM [inhibitor, partial curve]
42 | COc1ccc(-c2cc(C(F)(F)F)c3c(n2)sc2c(O)cc(=O)[nH]c23)c(OC)c1 | active: 14.1 µM
43 | COc1cccc(NC(=S)N2CCN(Cc3ccccc3)CC2)c1 | inactive
44 | COc1cc(OC)c2c(-c3ccccc3)cc(=O)oc2c1C(CC(=O)N1CCN(c2ccccc2)CC1)c1ccc2c(c1)OCO2 (centres undefined) | inconclusive: 39.8 µM [inhibitor, partial curve, poor fit]
45 | N#Cc1c(-n2ncnc2-c2ccc(F)cc2)sc2c1CCCCC2 | inconclusive: 3.55 µM [inhibitor, partial curve, poor fit]
46 | Cc1cc(OCc2nc(-c3cccs3)no2)cc(C)c1Cl | inconclusive: 12.6 µM [inhibitor, partial curve]
47 | Cc1ccc(C(=O)NC(=S)Nc2ccc(NC(=O)c3cccs3)cc2)cc1[N+](=O)[O-] | inconclusive: 1.58 µM [inhibitor, full curve]
48 | COc1ccc(/C=N/NC(=O)CCN2CCN(c3ccccc3)CC2)c(OC)c1OC | inactive
49 | O=c1cc(-c2ccc(O)c(O)c2)oc2cc(OC3OC(CO)C(O)C(O)C3O)cc(O)c12 (centres undefined) | inconclusive: 11.2 µM [inhibitor, partial curve, poor fit]
50 | N#Cc1cccc(NC(=S)Nc2ccccc2)c1 | inactive

Row | SMILES | Potency
51 | Nc1nc(SCC(=O)NC2CCCC2)[nH]c(=O)c1-c1ccccc1 | inactive
52 | O=C(CN1CCCCCC1)N/N=C/c1ccc(Cl)c(Cl)c1 | inactive
53 | CCN1C(=O)/C(=C2\SC(=S)N(CCCOC)C2=O)c2ccccc21 | inconclusive: 3.55 µM [inhibitor, full curve]
54 | Cc1ccc(/C=N/NC(=O)c2cccnc2)o1 | inactive
55 | Cc1cccc(-n2cnc(C(=O)NNC(=S)Nc3ccccc3)c2)n1 | inconclusive: 17.8 µM [inhibitor, single point]
56 | CC(C)Sc1nnc(CNC(=O)C23CC4CC(CC(C4)C2)C3)n1C1CCCCC1 | inactive
57 | CCc1ccc(-n2c(=O)c3c4c(sc3n(CC(=O)c3ccc(Br)cc3)c2=O)CCC4)cc1 | inconclusive: 35.5 µM [inhibitor, single point]
58 | O=C(Nc1ccccc1)Nc1ccc2nnsc2c1 | inconclusive: 25.1 µM [activator, partial curve]
59 | O=C(CCSc1ccccc1)Nc1nc2c(s1)CCCC2 | inconclusive: 14.1 µM [inhibitor, partial curve]
60 | Cc1cc(-c2ccc([N+](=O)[O-])cc2)nc2ccccc12 | inconclusive: 14.1 µM [inhibitor, partial curve]
61 | Cc1nc(/N=C(\N)NC(=O)NC2CCCCC2)nc2ccccc12 | inconclusive: 35.5 µM [inhibitor, single point]
62 | N#CNC(=Nc1ccccc1F)SCc1ccc(C(=O)O)cc1 | inconclusive: 31.6 µM [inhibitor, partial curve]
63 | O=C(COc1ccc([N+](=O)[O-])cc1)N/N=C/c1ccccn1 | inconclusive: 31.6 µM [inhibitor, partial curve]
64 | CCCCOc1ncnc2c1[nH]c1ccc(C)cc12 | inactive
65 | FC(F)(F)c1ccc(/C=N/N2CCN(Cc3ccccc3)CC2)cc1 | inconclusive: 28.2 µM [inhibitor, single point]
66 | CC(C)(C)c1cc(-c2nc(N)nc(N)n2)cc(C(C)(C)C)c1 | inconclusive: 39.8 µM [inhibitor, single point]
67 | CCCn1c(O)c(N=NC(=O)c2cccnc2)c2cc(Br)ccc21 | inconclusive: 2.82 µM [inhibitor, partial curve, poor fit]
68 | CSC1=NCCN1C(=O)Cc1ccc(-c2ccccc2)cc1 | inconclusive: 35.5 µM [inhibitor, single point]
69 | CCC(C)NC(=O)CCC(=O)N1Cc2ccccc2Oc2ncccc21 (centres undefined) | inactive
70 | C=C(C(C)=O)C(O)c1ccc2ccccc2c1 (centres undefined) | inactive
71 | CCOc1ccc(C2=Cc3cc(OC)c(OC)cc3C(=C(Cl)Cl)O2)cc1 | active: 17.8 µM
72 | Cc1ccc(S(=O)(=O)Nc2ccc3nc(-c4ccc(F)cc4)oc3c2)cc1 | inactive
73 | Cc1nc(-c2cccc(NC(=O)c3cccs3)c2)cs1 | inconclusive: 25.1 µM [inhibitor, partial curve]
74 | COc1ccc(NC(=O)CSc2nc(N)c(C(=O)Nc3ccc(N(C)C)cc3)s2)cc1 | active: 2.51 µM
